Values marked as one replicate rest on one cluster of the flow cell; about a third of the high ones do not repeat.
tested on: ATP; test: switch fluorescence ratio, 500 uM ATP over buffer (Cy3 cluster intensity, sum of 5 cycles each) (fold (ratio)); higher = stronger signal-on switching upon ATP binding; sequences stand for … in TCGTCGGCAGCGTCAGATGTGTATAAGAGACAGTTTTTTTTTTTTTTTTTTTTTTTTT…TC; details: aptamer strand: ATP DNA aptamer (quencher-CACCTGGGGGAGTATTGCGGAGGAAGG + anchor), 100 nM annealed; ATP concentration: 500 uM; one replicate
Summary of the method: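 Five buffer/ATP imaging cycles were run on Cy3-labelled switching-strand clusters on a modified Illumina MiSeq flow-cell, with NaOH stripping and re-annealing between cycles. In each cycle, clusters annealed to 100 nM quencher-labelled ATP aptamer were imaged in selection buffer, then after 15 min with 500 uM ATP at 22 °C. Per cluster, the fluorescence ratio is summed target-cycle over summed buffer-cycle Cy3 intensity, averaged per switch-domain sequence. Only clusters within 100-1000 RFU were kept.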
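Further: ATP exposure 15 min at 22 °C before imaging.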

| Sequence | switch fluorescence ratio |
| --- | --- |
| GACAGCGGGA | 1.01 |
| GACAGGATGT | 0.963 |
| GACAGTAACC | 1.16 |
| GACAGTTGGA | 0.939 |
| GACAGTTTGA | 0.981 |
| GACATCTAAT | 1.05 |
| GACATGAGAC | 1.07 |
| GACATGATGG | 1.03 |
| GACATGATTA | 1.01 |
| GACATGCAAC | 1.2 |
| GACATGCAAG | 0.96 |
| GACATTAAAC | 1.07 |
| GACATTACGG | 1.17 |
| GACCACGTCG | 1.02 |
| GACCAGGGGC | 1.42 |
| GACCATAGAC | 1.05 |
| GACCATTGAG | 0.981 |
| GACCATTTGC | 0.962 |
| GACCCCACTG | 1.08 |
| GACCCGGCCT | 1.05 |
| GACCCGGTGT | 1.02 |
| GACCCTAGGA | 1.04 |

| Sequence | switch fluorescence ratio |
| --- | --- |
| GACCGAAGGA | 1 |
| GACCGACTGT | 1.14 |
| GACCGAGATG | 1.55 |
| GACCGATTTA | 0.993 |
| GACCGCTTTG | 1.05 |
| GACCTAACCA | 1.03 |
| GACCTAGGCC | 1.02 |
| GACCTGATGT | 1.02 |
| GACCTGGTGT | 1.6 |
| GACCTTCTGT | 1.11 |
| GACGAATAGC | 1.4 |
| GACGAGCTAT | 2.28 |
| GACGAGGAAT | 1.06 |
| GACGCACGGA | 1.26 |
| GACGCCAACA | 1.41 |
| GACGCCCTCT | 1.08 |
| GACGCCGCTA | 1.47 |
| GACGCCGCTG | 1.26 |
| GACGCCGGG | 1.04 |
| GACGCCTTGG | 0.981 |
| GACGCGAGG | 1.2 |
| GACGCGGCAT | 1.03 |

| Sequence | switch fluorescence ratio |
| --- | --- |
| GACGCGGTCG | 0.926 |
| GACGCTGGAG | 1 |
| GACGGACTGT | 1.21 |
| GACGGAGGAG | 0.967 |
| GACGGATCGG | 0.996 |
| GACGGCTTTG | 1.03 |
| GACGGGAAAT | 1 |
| GACGGTGACA | 1.09 |
| GACGGTGGAA | 1 |
| GACGGTTTCA | 0.979 |
| GACGTACAGT | 1.47 |
| GACGTAGCAC | 5.16 |
| GACGTAGGAG | 1.03 |
| GACGTAGTTC | 1.01 |
| GACGTCCCCT | 1.02 |
| GACGTGCTCT | 0.987 |
| GACGTGGGTG | 0.963 |
| GACGTGTAGC | 1.08 |
| GACGTGTGCT | 0.938 |
| GACGTTACAG | 1.06 |
| GACGTTAGC | 1.07 |
| GACTAATATT | 1.03 |

| Sequence | switch fluorescence ratio |
| --- | --- |
| GACTACGAGC | 1.08 |
| GACTACTCCT | 1.16 |
| GACTACTTAT | 1.02 |
| GACTAGACTC | 1.05 |
| GACTAGATAT | 0.99 |
| GACTAGTATG | 1.05 |
| GACTAGTGGA | 0.967 |
| GACTATAACG | 1 |
| GACTATTATA | 1.03 |
| GACTATTGAT | 1 |
| GACTCAACTA | 1.07 |
| GACTCAAGGT | 1.07 |
| GACTCACCAT | 1.22 |
| GACTCACGTA | 1.24 |
| GACTCATAGG | 0.946 |
| GACTCTCAT | 1.03 |
| GACTCTCGGA | 1.04 |
| GACTCTTCAA | 1.08 |
| GACTGAACGA | 1.24 |

— the supplement of paper PMC10126150
